Experimental data reported in PubChem BioAssay AID360 (National Center for Advancing Translational Sciences (NCATS), 2006).
Hit rate of the full screen: of about 48,000 compounds, about 550 (1.1%) were called active. Inconclusive results (about 4%) are left out. Cut-off read from the data, not from the text of the source: active = potency below about 15 µM; inconclusive = mostly about 16 µM to 33 µM; inactive = weaker than that. Some of the results follow.

biological target: Lysosomal acid glucosylceramidase (Homo sapiens) (UniProt P04062); test: Glucocerebrosidase; settings: purified enzyme, resorufin glucoside fluorescence (screen aimed at inhibitors), 20 min; series mostly up to 77 µM;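 note: the screen sought inhibitors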
Summary of the method: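 Normal human glucocerebrosidase (0.2 nM final) was assayed with resorufin β-D-glucopyranoside (30 uM final) in 50mM citric acid/KH2PO4, 10mM sodium taurocholate, 0.01% tween-20, pH 5.9. Compounds were titrated; fluorescence (Ex 548, Em 600) read after 20 min at RT.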
Potency is the fitted concentration of half-maximal effect.

Chain of UniProt P04062 (P04062 whole entry, looked up): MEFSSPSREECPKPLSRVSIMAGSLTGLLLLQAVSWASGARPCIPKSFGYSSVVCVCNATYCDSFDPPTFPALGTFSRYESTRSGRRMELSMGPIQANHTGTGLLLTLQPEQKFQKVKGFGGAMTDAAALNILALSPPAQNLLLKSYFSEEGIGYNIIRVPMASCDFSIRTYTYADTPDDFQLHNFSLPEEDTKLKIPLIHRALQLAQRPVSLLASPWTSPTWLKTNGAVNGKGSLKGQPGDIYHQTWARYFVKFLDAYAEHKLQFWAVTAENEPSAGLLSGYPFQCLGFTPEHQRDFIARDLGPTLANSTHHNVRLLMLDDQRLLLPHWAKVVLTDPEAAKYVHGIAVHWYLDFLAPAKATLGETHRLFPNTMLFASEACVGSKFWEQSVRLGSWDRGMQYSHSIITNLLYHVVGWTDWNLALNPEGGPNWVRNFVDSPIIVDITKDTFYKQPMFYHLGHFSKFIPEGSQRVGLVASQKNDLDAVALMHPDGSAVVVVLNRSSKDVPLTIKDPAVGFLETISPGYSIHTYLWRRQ

SMILES | Potency
CC(C)C[C@H](NC(=O)NCc1ccccc1Cl)C(=O)O | inactive: > 76.9 µM
COCCOC(=O)c1c(C)oc2ccc(OC(=O)c3ccc4c(c3)OCO4)cc12 | inactive: > 76.9 µM
CC(C)N(Cc1nc(-c2ccc(Cl)cc2)no1)C(=O)c1cccs1 | inactive: > 76.9 µM
Cc1cc(NC(=O)c2cc3ncc(Br)cn3n2)no1 | inactive: > 76.9 µM
Cc1ccccc1-c1nc(CS(=O)CC(=O)NCCN2CCN(Cc3ccccc3)CC2)c(C)o1 (centres undefined) | inactive: > 76.9 µM
O=C(Cn1c(=O)sc2ccccc21)Nc1ccc2c(c1)OCCO2 | inactive: > 76.9 µM
O=C(Oc1ccc2c(c1)OCO2)c1ccc(F)cc1Cl | inactive: > 76.9 µM
COC(=O)c1c(N)nc(C)n1-c1ccc(OC)cc1 | inactive: > 76.9 µM
CCSCCNC(=O)c1cncc(Br)c1 | inactive: > 76.9 µM
CC(=O)N1CCc2cc(S(=O)(=O)CCC(=O)Nc3ccc4c(c3)OCCO4)ccc21 | inactive: > 76.9 µM
Nc1nc(CN2CCN(c3cccc(Cl)c3)CC2)nc(N2CCCc3ccccc32)n1 | active: 13.8 µM
CCOC(=O)CSc1nnc(-c2ccco2)n1C | inactive: > 76.9 µM
CCOc1cc(S(=O)(=O)N2CC=C(c3ccc(F)cc3)CC2)c(OCC)cc1-n1cnnn1 | inactive: > 76.9 µM
COc1ccc(NC(=O)Nc2ccccc2C(=O)N2CCCC2)cc1 | inactive: > 76.9 µM
O=C(c1cccc(F)c1)N1CCN(CC2CC3C=CC2C3)CC1 (centres undefined) | inactive: > 76.9 µM
COc1cccc(-c2c(NC(=O)c3ccco3)n(-c3ccc(C)cc3)nc(C)c2=O)c1 | inactive: > 76.9 µM
Cc1ccc2nc(CSc3nnc(-c4ccco4)n3-c3ccccc3)cc(=O)n2c1 | inactive: > 76.9 µM
Cc1cccc(OCc2nnc(N)s2)c1 | inactive: > 76.9 µM
CCc1ccc2c(c1)CCCN2C(=O)c1ccccc1C(=O)O | inactive: > 76.9 µM
Brc1ccc(-c2nn3c(-c4ccncc4)nnc3s2)o1 | inactive: > 76.9 µM

SMILES | Potency
Cc1cc2oc(=O)cc(CN3CCc4ccccc43)c2cc1Cl | inactive: > 76.9 µM
COc1cc(C(=O)Nc2nnc(-c3sccc3C)s2)cc(OC)c1OC | inactive: > 76.9 µM
CCOC(=O)CN=C1CC(C)(C)CC2=C1Sc1ncnc(N(C)C)c1N2 | inactive: > 76.9 µM
COC(=O)c1c(-c2ccncc2)csc1NC(=O)c1ccoc1C | inactive: > 76.9 µM
Cn1nnnc1SCC(=O)N1CCN(Cc2ccccc2)CC1 | inactive: > 76.9 µM
Cc1cc(C)n(CC(=O)O)n1 | inactive: > 76.9 µM
O=C(Nc1ccc2c(c1)OCCO2)C1CCC1 | inactive: > 76.9 µM
O=C(O)c1ccccc1S(=O)(=O)c1ccccc1CO | inactive: > 76.9 µM
CCN(CC)S(=O)(=O)N1CCC(C(=O)NCCN2CCOCC2)CC1 | inactive: > 76.9 µM
COCCCN1C(=O)C(O)=C(C(C)=O)C1c1ccccn1 (centres undefined) | inactive: > 76.9 µM
COc1ccc(Cl)cc1C(=O)Nn1c(C)nc2ccccc2c1=O | inactive: > 76.9 µM
CCN(CC)S(=O)(=O)c1cccc(C(=O)OCC(=O)N2CC(=O)Nc3ccccc32)c1 | inactive
COc1ccc(OC)c(NC(=O)C2CCCC2)c1 | inactive: > 76.9 µM
O=C(CN1CCN(Cc2ccccc2)CC1)c1c[nH]c2ccccc12 | inactive: > 76.9 µM
CCC(C)NC(=O)Cn1c(=O)n(-c2ccccc2)c(=O)c2ccc(C(=O)NCc3ccco3)cc21 (centres undefined) | inactive: > 76.9 µM
CCCCOc1ccc(NC(=O)c2cnc(C)cn2)cc1 | inactive: > 76.9 µM
CC(=O)Nc1ccc(S(=O)(=O)N(C)S(=O)(=O)c2ccc(F)cc2)cc1 | inactive: > 76.9 µM
N=c1ccn(Cc2ccc(Cl)cc2)cc1 | inactive: > 76.9 µM
O=C(Nc1ccccc1C(=O)OCC(=O)N1CCc2ccccc2C1)c1ccco1 | inactive: > 76.9 µM
O=C(O)CSC1CC(=O)N(c2cccc(Cl)c2)C1=O (centres undefined) | inactive: > 76.9 µM

SMILES | Potency
O=C(Cn1nnc(-c2ccccc2NC(=O)C2CC2)n1)NC1CCCCC1 | inactive: > 76.9 µM
O=C(Cn1nnc(-c2ccccc2F)n1)Nc1cccc2ncccc12 | inactive: > 76.9 µM
CC(C)OC(=O)CSc1nc2ccccc2s1 | inactive: > 76.9 µM
CNC(=O)COC(=O)c1cc(F)c(F)cc1Cl | inactive: > 76.9 µM
CC(C)[C@H](NC(=O)Nc1ccc(Oc2ccccc2)cc1)C(=O)O | inactive: > 76.9 µM
Nn1cnnc1SCC(=O)Nc1ccc2c(c1)OCCO2 | inactive: > 76.9 µM
O=C(Nc1nnc(-c2ccco2)s1)C1CCCCC1 | inactive: > 76.9 µM
N#C/C(=C\c1ccc[nH]1)S(=O)(=O)c1ccccc1 | inactive: > 76.9 µM
COCCCN1C(=O)C(O)=C(C(=O)c2ccco2)C1c1ccccc1 (centres undefined) | inactive: > 76.9 µM
COc1ccc(OC)c(C2C(C(=O)N(C)C)=C(C)Nc3nc4ccccc4n32)c1 (centres undefined) | inactive: > 76.9 µM
CCCN1C(=O)C2C(C(=O)Nc3cccc(OC)c3)C3C=CC2(O3)C1C(=O)NC1CCCCC1 (centres undefined) | inactive: > 76.9 µM
CCOC(=O)c1sc2c(c1C)C(c1cccs1)C1=C(CCCC1=O)N2 (centres undefined) | inactive: > 76.9 µM
COc1ccc(CNC(=O)Cn2cnc3c(=O)n(C)c(=O)n(C)c32)cc1 | inactive: > 76.9 µM
CCCCOC(=O)c1ccc(NC(=O)C(CCS(C)(=O)=O)NC(C)=O)cc1 (centres undefined) | inactive: > 76.9 µM
CC(NC(=O)C1CCC1)c1ccc(Cl)cc1 (centres undefined) | inactive: > 76.9 µM
O=C(Cn1c(=O)oc2ccccc21)c1ccccc1 | inactive: > 76.9 µM
COc1cc2c(cc1OC)C1(CCCC1)CNC2C (centres undefined) | inactive: > 76.9 µM
Cc1cc(C(F)F)n2ncc(C(=O)N3CCc4ccccc4C3)c2n1 | inactive: > 76.9 µM
CNC(=O)CN(C1CCCCC1)S(=O)(=O)c1ccc(OC)c(Cl)c1 | inactive: > 76.9 µM
